Target: B7H3 on B7H3-positive human tumor cells (M14, LAN-1, IMR-32, HeLa) (human), Q5ZPR3
Experiment: cell-based or functional assay

- ADCC EC50 (µg/ml), 51Cr release, LAN-1 targets, human PBMC effectors: 0.7 µg/mL
- Fold change EC50 relative to ch8H9 (ADCC): 2 fold
B1: hu8H9 H3L3 IgG1 (antibody)
heavy: QVQLVQSGAEVVKPGASVKLSCKASGYTFTNYDINWVRQRPEQGLEWIGWIFPGDGSTQYNEKFKGKATLTTDTSTSTAYMELSSLRSEDTAVYFCARQTTATWFAYWGQGTLVTVSS[sequence of human IgG1 constant region omitted]
light: EIVMTQSPATLSVSPGERVSLSCRASQSISDYLHWYQQKSHESPRLLIKYASQSISGIPARFSGSGSGSEFTLTINSVEPEDVGVYYCQNGHSFPLTFGQGTKLELKRTVAAPSVFIFPPSDEQLKSGTASVVCLLNNFYPREAKVQWKVDNALQSGNSQESVTEQDSKDSTYSLSSTLTLSKADYEKHKVYACEVTHQGLSSPVTKSFNRGEC

Source: patent US20170240637A1
